# From PubChem BioAssay AID485344 (National Center for Advancing Translational Sciences (NCATS), 2010)
# Among all 340,000 compounds or so, about 6,900 (2%) were called active. Rule as the data show it: active = inhibition above about 30%; inactive = below that, where a call was filed. The list shows a part of the results, in another mix than the full data. The source gives no active or inactive call for entries shown without one.
# Molecular target: D(2) dopamine receptor (Homo sapiens) (UniProt P14416)
# Experiment: HTS Assay for Allosteric Antagonists of the Human D2 Dopamine Receptor: Primary Screen for Antagonists; also: 0% is about no effect
# Conditions: HEK293 TREx D2 cells, calcium flux, dopamine EC80; at 10 µM; stronger effect = higher value
# Procedure, shortened: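 Dopamine at EC80 is the agonist stimulus; test compounds precede it by 180 s. Calcium flux read kinetically in a force-coupled, inducible HEK293 T-REx D2 cell line.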
# Chain of UniProt P14416 (P14416 whole entry, looked up): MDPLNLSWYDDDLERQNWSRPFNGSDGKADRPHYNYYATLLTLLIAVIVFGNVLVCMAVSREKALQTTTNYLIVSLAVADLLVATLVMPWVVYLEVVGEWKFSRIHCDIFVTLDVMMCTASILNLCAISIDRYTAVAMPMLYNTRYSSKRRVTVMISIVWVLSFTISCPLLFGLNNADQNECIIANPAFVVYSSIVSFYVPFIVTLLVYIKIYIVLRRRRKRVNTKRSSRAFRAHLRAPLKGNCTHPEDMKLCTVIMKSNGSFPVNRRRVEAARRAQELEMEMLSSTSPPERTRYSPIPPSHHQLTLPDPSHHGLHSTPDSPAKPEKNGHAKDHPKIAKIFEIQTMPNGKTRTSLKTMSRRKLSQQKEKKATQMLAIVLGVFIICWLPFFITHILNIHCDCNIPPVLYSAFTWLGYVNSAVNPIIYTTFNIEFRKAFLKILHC
row,SMILES,inhibition
1,CCN(C(=O)CSc1nnc(-c2cc3occc3n2C)n1-c1ccccc1C)c1ccccc1,2.55%
2,O=C(CN1C(=O)COc2ccc(S(=O)(=O)N3CCOCC3)cc21)NCc1ccc(Cl)cc1,-6.8%
3,CS(=O)(=O)c1ncc(Cl)c(C(=O)N2CCN(c3cccc(Cl)c3)CC2)n1,16.3%
4,CC(=O)Nc1ccc(OCC(O)CN2CCN(c3ccc(Cl)cc3)CC2)cc1 (stereo unspecified),active: 40.2%
5,CCOc1ccc(Nc2sc(C(=O)c3ccc(F)cc3)c(N)c2S(=O)(=O)c2ccc(C)cc2)cc1,-2.94%
6,Cc1oc2ncn(CC(C)C)c(=O)c2c1C(=O)NCc1cccc(Cl)c1,-6.59%
7,COC(=O)CC(=O)CSc1nc2cc(C(=O)NC(C)C)ccc2c(=O)n1CCc1ccccc1,-4.42%
8,Cc1ccc(C(=O)OC2=C(C(=O)c3ccccc3)N(C)S(=O)(=O)c3ccccc32)cc1,16.9%
9,CCOc1ccc(CN(C)CC(=O)Nc2ccc3c(c2)CCC3)cc1OC,active: 30.1%
10,O=C(Cc1ccc(-c2ccccc2)cc1)NCCS(=O)(=O)N1CCN(c2cccc(Cl)c2)CC1,-1.12%
11,Cc1cccc(-c2nc(SCCCOc3cc(C)c(Cl)c(C)c3)n3[nH]c(=O)cc3n2)c1,2.13%
12,COc1ccc(Nc2ncnc3c2cnn3-c2cc(Cl)ccc2C)cc1OC,1.35%
13,CCCCN(CC)CCCNC(=O)Cn1nc(CC)n2c(cc3sccc32)c1=O,4.86%
14,CSc1ncc(C(=O)NCc2ccc(F)cc2)c(-c2ccccc2)n1,11.1%
15,COc1ccc2c(c1)c1c(c(=O)n(CCc3ccccc3)c(=O)n1Cc1cccc(C)c1)n2C,-6.59%
16,CCOC(=O)c1ccc(NC(=O)CCCn2nc(C)c3sc4ccccc4c3c2=O)cc1,-14%
17,Cc1cc(C)cc(NC(=O)c2cn3c4c(ccc(Cl)c4c2=O)OC(C)C3)c1 (stereo unspecified),9.49%
18,CCCCn1c(=O)c2oc3ccccc3c2n(Cc2ccc(OC)cc2)c1=O,18.5%
19,O=c1[nH]c(/C=C/c2ccccn2)nc2ccccc12,active: 37.1%
20,CCOC(=O)C1=C(CS(=O)(=O)c2ccccc2)NC(=O)NC1c1ccccc1OCC (stereo unspecified),active: 36.1%
21,COc1ccccc1CNC(=O)c1ccc(-c2nc(CS(=O)c3ccc(C)cc3)c(C)o2)cc1 (stereo unspecified),-7.82%
22,COc1ccc(S(=O)(=O)Nc2ccc3c(c2)sc(=O)n3C)cc1Cl,4.87%
23,COc1ccc(NC(=O)C2CCN(S(=O)(=O)c3cn(C)cn3)CC2)cc1Cl,1.82%
24,CC(C)C(=O)Nc1nnc(S(=O)(=O)N(C)Cc2ccc(F)cc2)s1,-4.35%

row,SMILES,inhibition
1,CCOc1ccccc1NC(=O)C1CCCN(c2ncnc3onc(-c4ccc(F)cc4)c23)C1 (stereo unspecified),14.5%
2,CC(=O)OCc1cnc(C)c2oc(=O)c(C(=O)Nc3cc(F)ccc3C)cc12,17.9%
3,O=C(c1ccc([N+](=O)[O-])cc1)N(Cc1ccco1)c1ccccn1,-13.1%
4,NC(=O)CN1C(=O)C2(SCC(=O)N2c2cccc(F)c2)c2ccccc21 (stereo unspecified),-3.58%
5,COc1ccc(C2C(C(=O)Nc3ccc(C)cc3C)=C(C)Nc3nc(SC)nn32)cc1OC (stereo unspecified),-23.5%
6,Cc1ccc(NC(=O)CSc2nnc(COc3ccc(Cl)cc3)o2)cc1,16.4%
7,CCSc1nnc(NC(=O)c2csc3c2CCCC3)s1,active: 40.2%
8,CCc1ccc(CN(Cc2ccco2)C(=O)COc2ccccc2Cl)cc1,7.4%
9,Cc1ccc(-c2nnc(Nc3cccc(Br)c3)c3ccccc23)cc1S(=O)(=O)N1CCCCC1,5.3%
10,Cc1cccc(-n2c(=O)c3c(c4cc(C)ccc4n3C)n(C)c2=O)c1,0.729%
11,Cc1ccc(C)c(C(=O)CSc2nc(-c3ccccc3)nc3c2CCCC3)c1,-14.8%
12,Cc1cc2c(cc1S(=O)(=O)CCC(=O)N(C)C1CCCCC1)OCC(=O)N2,-5.57%
13,COCCN(Cc1ccco1)C(=O)Cn1ncc2c([nH]c3ccccc32)c1=O,-2.97%
14,CN(c1ncnc2c1c(-c1ccccc1)cn2-c1cccc(Cl)c1)C1CCCCC1,-23.4%
15,Cc1ccc(-c2nnn3c2nc(NCCc2ccccc2)c2ccccc23)cc1,6.05%
16,COc1cccc(NC(=O)CCc2nc(-c3ccc(C(C)(C)C)cc3)no2)c1,2.06%
17,COC(=O)c1cc2oc(C)cc2n1Cc1cc(C)ccc1C,-4.62%
18,CCOc1ccc(NC(=O)CSc2nc(-c3cccc(Cl)c3)nc3c2Cc2c(CO)cnc(C)c2O3)cc1,14.2%
19,Cc1ccc(C)c(NC(=O)Cn2ncc3c([nH]c4ccccc43)c2=O)c1,0.0342%
20,Cc1ccc(C)c(NC(=O)CSc2c(C)cnc3c2c(=O)n(C)c(=O)n3C)c1,-11.3%
21,CCOc1ccc(OCC)c(NS(=O)(=O)c2c(C)[nH]c(=O)[nH]c2=O)c1,1.18%
22,O=C(Cn1cnc2nc3c(cc2c1=O)CCCC3)N1CCN(c2cccc(C(F)(F)F)c2)CC1,23.4%
23,O=C(CCCCCN1C(=O)c2ccccc2C1=O)Nc1ccc(F)cc1,active: 34.5%
24,CCC(=O)N1c2ccccc2CC1C(=O)N1CCN(c2cccc(OC)c2)CC1 (stereo unspecified),-15.9%

row,SMILES,inhibition
1,CCc1ccc(NC(=O)Cn2ccn(-c3ccc(OC)cc3)c(=O)c2=O)cc1,-22.4%
2,CC(=O)c1ccc(S(=O)(=O)Nc2ccc(-c3ccc(N4CCCCC4)nn3)cc2)cc1,8.37%
3,COc1ccc(Cn2c(C(=O)O)c(CNC3CCCC3)c3ccc(C)cc32)cc1,14%
4,COc1ccc(CCNC(=O)c2csc3c2CCCCC3)c(OC)c1,-16.5%
5,CCC1CCCCN1Cc1c(O)ccc2c(=O)c(Oc3ccccc3Cl)c(C(F)(F)F)oc12 (stereo unspecified),-6.15%
6,Cc1cccn2c3c(c(=O)nc12)C(c1cccc(F)c1)CC(=O)N3 (stereo unspecified),-5.33%
7,Cc1oc2ncn(CC(C)C)c(=O)c2c1C(=O)NCCc1ccc(Cl)cc1,-12.7%
8,Cc1ccc(CNC(=O)c2ccc3c(c2)CCN3S(=O)(=O)c2ccccc2)cc1,8.32%
9,CCc1nc2ccc(C(=O)NCc3ccc(OC)c(OC)c3)cc2nc1CC,-23.9%
10,N#CCC(=O)Nc1ccc(C(=O)OCC(=O)NCc2ccc3c(c2)OCO3)cc1,active: 44%
11,CC1(C)Cc2c(c(N3CCOCC3)nc3sc(C(=O)Nc4ccc(Cl)cc4)c(N)c23)CO1,1.92%
12,Cc1ccc2c(CC(=O)Nc3cccc(C(F)(F)F)c3)coc2c1,12.5%
13,Cc1ccc2c(c1)-c1onc(C(=O)N(C)c3cccc(C(F)(F)F)c3)c1CO2,11.2%
14,Cc1ccccc1CNC(=O)Cn1c(C)c2cnn(-c3ccccc3)c(=O)c2c1C,0.149%
15,CCOC(=O)COc1ccc(/C=C(\C#N)c2nc3ccc(C)cc3[nH]2)cc1OC,7.35%
16,CCOC(=O)c1sc(N2C(=O)c3oc4ccccc4c(=O)c3C2c2ccc(C(C)(C)C)cc2)nc1C (stereo unspecified),5.51%
17,CCCCOc1ccc(C(=O)Nc2cc(-c3ccc(C)cc3)no2)cc1,16.4%
18,Cc1nn(-c2ccccc2)c2nc(C3CC3)cc(C(=O)Nc3ccc(F)cc3)c12,5.03%
19,O=C(Nc1ccc(OCc2cc(=O)n3c4c(sc3n2)CCCC4)cc1)c1cccc(F)c1,-7.59%
20,CCc1c(C)sc2c1CCN(Cc1ccccc1)C2c1ccccc1 (stereo unspecified),-2.36%
21,O=C(CCn1cnc2onc(-c3ccc(F)cc3)c2c1=O)Nc1ccc(F)c(Cl)c1,3.07%
22,Cc1ccc(NC(=O)CN(C)S(=O)(=O)c2ccc3c(c2)n(C)c(=O)c(=O)n3C)cc1F,3.44%
23,COc1cc(C(=O)NCCc2ccc(S(=O)(=O)N3CCCC3)cc2)cc(OC)c1OC,active: 58%
24,Cn1c(SCC(=O)NCc2ccc(F)cc2)ncc(C(=O)Nc2ccccc2)c1=O,active: 32.1%

row,SMILES,inhibition
1,CCOC(=O)C1CCN(CC(=O)Nc2cc(C)c3c(=O)oc4ccccc4c3n2)CC1,-4.86%
2,Cc1ccccc1S(=O)Cc1ccc(C(=O)NC2CCN(Cc3ccccc3)CC2)o1 (stereo unspecified),active: 43.9%
3,Cc1cn2c(=O)cc(COc3cccc(NC(=O)c4ccc(C(C)(C)C)cc4)c3)nc2s1,19.7%
4,CCOc1ccc(NC(=O)c2c(C)nn(-c3ccc(F)cc3)c2-n2cccc2)cc1,1.61%
5,C=CCc1ccccc1OCCSc1nc(-c2cccs2)nc2cc(=O)[nH]n12,0.958%
6,O/N=C1/CCc2nonc2/C1=N/O,active: 39.1%
7,COc1cc(CC(NC(C)=O)C(=O)NC2CCN(C(=O)C3CC3)CC2)cc(OC)c1 (stereo unspecified),active: 32.5%
8,O=C1Nc2ccccc2Oc2cc(Oc3cccc(Cl)c3)ccc21,-4.49%
9,Cc1nc2nc(SCC(=O)N(C)Cc3ccccc3)nn2c(C)c1Cc1ccccc1Cl,8.07%
10,Cc1cc(C)c(S(=O)(=O)N2CCC(n3c(C(F)(F)F)nc4cccnc43)CC2)c(C)c1,3.11%
11,Fc1ccc(N2CCN(c3nc4ccccc4c4nc(-c5cccnc5)nn34)CC2)cc1,2.54%
12,Cc1c(Cl)cccc1-c1ccc(CNCCCSc2nnnn2C)o1,-28.4%
13,CCCCNC(=S)N/N=C/c1ccc(C#N)cc1,active: 39.3%
14,CCCCN(C)CCNC(=O)C1CCCN(S(=O)(=O)c2cccc3nsnc23)C1 (stereo unspecified),-20.4%
15,Cc1nnc(N2CCCC(C(=O)NCc3ccccc3)C2)c2nn(-c3ccccc3)c(C)c12 (stereo unspecified),-4.6%
16,CN1CCN(C(=O)CCN2C(=O)/C(=C/c3cccc(Br)c3)SC2=S)CC1,active: 31%
17,COC(=O)c1sc2cccc(F)c2c1S(=O)(=O)N1CCN(c2cccc(OC)c2)CC1,-5.97%
18,CCOC(=O)c1cc(-c2ccccc2)n(CCC(=O)NCc2ccccc2Cl)c1C,-0.17%
19,COc1ccc(Nc2nc3ccccc3nc2NS(=O)(=O)c2ccc(C)cc2)c(OC)c1,19.7%
20,COc1ccccc1/C=C/CN1CCCC(CCC(=O)NCc2ccc(F)c(F)c2)C1 (stereo unspecified),active: 33%
21,COc1ccc(Cl)cc1NC(=O)CSc1nnc(CN2CCOCC2)n1-c1ccc(Cl)cc1,active: 75.9%
22,CCN(CC)c1cc(C)c2cc(NC(=O)c3cccc(OC)c3OC)ccc2n1,-1.16%
23,O=C(COc1ccccc1F)OCc1cc(=O)n2nc(C3CCCCC3)sc2n1,-0.761%
24,COc1cccc2cc(S(=O)(=O)c3ccc(F)c(C)c3)c(=O)oc12,-2.89%
